The results in this text go back to PubChem BioAssay (NCI).

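Briefly, cells in 96-well plates were exposed to five compound concentrations for 48 h, and endpoints were estimated by linear interpolation. The concentration for 50% growth inhibition is given as GI50. TGI is the concentration that stops growth completely.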 Bounds are passed on as bounds.

What is called GI50 is the concentration that inhibits growth by half. A word on the TGI: it is the concentration giving total growth inhibition.

The subject of this experiment is NCI-H322M lung. As to the kind of experiment: DTP human tumour cell line panel, 48 h.
In the case of `COc1cc(Oc2cnc3cc(N)cc(N)c3n2)cc(OC)c1OC`, the GI50 was over 100 µM and the TGI is over 100 µM. `O=C1N2CCN=C2c2ccccc2C1(O)c1ccccc1` (configuration not stated) came in with a TGI of over 100 µM.

`O=C(O)/C=C/C(=O)Nc1cccc2c1-c1ccccc1C2=O`: the TGI was over 100 µM. As to `N#CCCN(CCN(CCN(C(=O)Nc1ccccc1)c1ccccc1)C(=O)Nc1ccccc1)C(=O)Nc1ccccc1`, the TGI was over 100 µM. Still for that read-out and setting: in the case of `CCOC(=O)Cn1c(=O)c2cc(C)cc3c(Cl)nc4c(OC)c(OC)cc1c4c32` it was over 100 µM; in that of `COc1ccc(/C=N\N2C(=O)Cc3ccccc32)cc1`, over 100 µM. `Clc1cc(Cl)c2n[se]nc2c1`: the TGI is over 100 µM. Consider `COc1ccc(CNCCN2C(=O)c3ccc4c5c(ccc(c35)C2=O)C(=O)N(CCNCc2ccc(OC)cc2)C4=O)cc1`, for which the GI50 is 0.254 µM and the TGI was determined as 0.92 µM. As to `O=C(O)CC(Cc1ccccc1)C(=O)O` (configuration not stated), the TGI is over 100 µM. `CCCCC(=O)Nc1ccc2cc(C(=O)OC)c(=O)[nH]c2n1` yielded a TGI of over 100 µM. With `CCCCCCCC(=O)SCC/C=C/[C@@H]1CC(=O)NCc2cccc(n2)CN(Cc2ccc(Cl)cc2)CC(=O)N[C@@H](C(C)C)C(=O)O1`, the GI50 is 15.2 µM and the TGI stood at 85.9 µM. In turn, `CCC(C)CNC1=C(NC(C)=O)C(=O)c2ccccc2C1=O` (configuration not stated) registered a TGI of over 100 µM. On the same count and under the same terms, in the case of `Cc1cc(C)cc(NC(=O)CCC(=O)C2CCC/C2=N\NC(=O)C(=O)NN)c1` (configuration not stated) it was over 100 µM; in that of `O=c1[nH]/c(=C/c2cccs2)c(=O)[nH]/c1=C/c1ccc(OCc2ccccc2)cn1`, over 100 µM.

In turn, `COC(=O)c1ccc2c(c1)CCN2C(=O)c1cc2c(cc1Br)OCO2` had a TGI of 50 µM. The molecule `CCOC(=O)C(NC(=O)Nc1ccccc1)(Nc1cccc(Cl)c1)C(F)(F)F` (configuration not stated) returned a TGI of over 100 µM. For the molecule `Cc1c(Br)cccc1NC(=O)c1sc2nc3c(cc2c1N)CN(Cc1ccccc1)CC3`, the GI50 was 0.254 µM and the TGI is over 50 µM.

In turn, `Cc1cc(CC(O)(C(F)(F)F)C(F)(F)F)cc(CC(O)(C(F)(F)F)C(F)(F)F)n1` had a TGI of 16.4 µM. The molecule `COc1c2c(cc3oc(=O)ccc13)OC(C)(C)C=C2` came in with a TGI of over 125 µM. Still for that read-out and setting: to `Cc1ccc(N=c2oc3c(ccc4ccccc43)nc2Nc2ccc(C)cc2)cc1` belongs over 100 µM.

As to `C=CC[n+]1c(/C=C2\Sc3ccccc3N2C)sc(-c2ccccc2)c1-c1ccccc1`, the GI50 is 0.493 µM and the TGI amounted to 10.9 µM. `CC(CC(C)[C@H]1CCC2[C@H]3C(CC[C@@]21C)[C@@]1(C)CCC(O)C[C@H]1C[C@@H]3O)C(=O)O` (some centres not stated) returned a TGI of over 100 µM.

In turn, `CC1(C)OC2C(CO)OC(/N=C(\NC#N)Oc3ccccc3)C2O1` (configuration not stated) came in with a TGI of over 100 µM. Regarding `CC(C)n1c2c(c3ccccc3c1=O)C(=O)c1ccccc1-2`, the TGI was over 100 µM. For the molecule `COc1cc2c(cc1OC)[C@@H]1[C@H](C2=O)c2ccc([N+](=O)[O-])cc2C(=O)N1CCCBr`, the GI50 was under 0.0187 µM and the TGI amounted to 1.34 µM. `NC(N)=Nc1nc2cc(N)ccc2o1`: the TGI was over 100 µM. The same measure, in the same setting: in the case of `O=C1CCCn2c3ccccc3c3ccnc1c32` it was over 100 µM; in that of `COc1cc(/C=C/C(=O)OC[C@]23O[C@H]2[C@@H](OC2OC(C)C(O)C(O)C2O)C2C=CO[C@@H](OC4OC(CO)C(O)C(O)C4O)C23)ccc1O` (some centres not stated), over 100 µM. On the same count and under the same terms, to `COc1ccc2c(c1)C(CCN)C(=O)N2` (configuration not stated) belongs over 100 µM.

`CC1CN=C(c2ccc3c(c2)Cc2cc(C4=NCC(C)N4)ccc2-3)N1` (configuration not stated) had a TGI of 69.5 µM. As for `NC(=O)c1ncn(C2CCC(CP(=O)(O)O)C2)c1N` (configuration not stated), the TGI was over 100 µM. As to `O=C(CCCCCn1c2ccccc2c2c3c(c4c5ccccc5[nH]c4c21)C(=O)N(O)C3=O)N1CCOCC1`, the GI50 is 2.29 µM and the TGI came to 7.01 µM.

Turning to `O=C(NCCc1ccccc1)C(c1csc2ccccc12)N(C(=O)CCl)c1ccc(-c2cnco2)cc1` (configuration not stated), the GI50 is 1.63 µM and the TGI was determined as 3.04 µM.

Turning to `COC(=O)/C=C1\C(=O)N(C(C)=O)c2ccccc21`, the TGI was found to be 31.5 µM. This lies in the double-digit micromolar range.

On to `NS(=O)(=O)OC[C@H]1O[C@@H](n2cnc3c(N[C@H]4CCc5ccccc54)ncnc32)[C@H](O)[C@@H]1O`, for which the GI50 is 0.149 µM and the TGI was 0.549 µM. Molecule `Cc1cccc2c1NC(c1c(C)[nH]c3ccccc13)C2` (configuration not stated) returned a TGI of over 100 µM. On the same count and under the same terms, in the case of `O=C(CC1Sc2ccccc2NC1=O)Nc1ccc([N+](=O)[O-])cc1[N+](=O)[O-]` (configuration not stated) it was over 100 µM; in that of `O=C1NC(N2CCOCC2)=N/C1=C\c1ccccc1`, over 100 µM.

Consider `CCOC(=O)C(=C=Cc1cccs1)C(=O)c1ccccc1`, for which the TGI turned out to be 30.6 µM. The molecule `Nc1c(Cl)ncnc1NCC1(CO)CCC1` had a TGI of over 100 µM. The same measure, in the same setting: in the case of `CC(=O)OC1CC[C@@]2(C)C(CC(OC3OC(CO)C(O)C(O)C3O)[C@]3(C)C2CCC24CC23CC[C@H]4C(C)CC(O)[C@@H](O)C(C)(C)O)C1(C)C` (some centres not stated) it was 41.9 µM. On to `CC(C)=CCNc1ncnc2c1ncn2C1OC(COP(=O)(O)O)C(O)C1O` (configuration not stated), for which the GI50 was 6.95 µM and the TGI was over 100 µM.
